Measurements: the RNAGym collection of RNA variant scans (doi:10.1073/pnas.2313332121)
Variants at the background level are over-represented here.

B1: TPR 5TU (parent)
chain: GGAUCUUCUCGAUCUAACAAAAAAGACAAAUCUGCCACAAAGCUUGAGAGCAUCUUCGGAUGCAGAGGCGGCAGCCUUCGGUGGCGCGAUAGCGCCAACGUUCUCAACUAUGACACGCAAAACGCGUGCUCCGUUGAAUGGAGUUUAUCAUG

Variants of: B1
Test: polymerase ribozyme fitness, log enrichment relative to wild type (log ratio); higher = more active; in vitro selection for triplet polymerase activity
How it was run: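 The heterodimeric triplet polymerase ribozyme's subunits were each mutagenized into PCR-built libraries and transcribed. Every library was selected once, in triplicate, by annealing with a biotinylated primer, the partner subunit and triplets, incubating frozen at −7 °C, gel-excising extended constructs, capturing on streptavidin beads and running RT-PCR. Input and output libraries were Illumina-sequenced, with genotypes kept only at ≥10 input reads and ≥1 read per output. Fitness, from inverse-variance-weighted replicate averages, is the base-2 logarithm of genotype enrichment over wild-type enrichment.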

Polymerase ribozyme fitness (log ratio), -4.03:
A30C C96G

Polymerase ribozyme fitness (log ratio), ≤ -4.2:
A30U G46U A47G A60G C69A A89U
A30U A49G C93A G117A
A30U A66G G68A C76U G141U A142U
A30U A49C C96U
A30U G58C G68A C99A
A30G G143C
A30C C32G A41C A52G C87U A113C
A30G A49C G92U A137U G152C
A30G C63U C79G C93G C99A G100U U101G
A30U G50A G74A C79U G92U C93A A107U
A30U U56G G71A C75A
A30U G59U C85U C95G C149G
A30G U44A G88U C103A A115G U148G
A30U G71C C95A
A30G G59C G94U A121G
A30G C54A C85G A120U C125U G136A
A30G G83C C95U A137C
A30U C35G C54U G58C C85A A91C G94C A142C U146G
A30G C38A C57A G58C U78G A97G U101C U102G
A30G C87U G141U
A30G G59A C76A C118G A120U
A30C A37U A52C G92U C103A
U31A C51G G80A C85U G88C C114U G128U G141U
A30C G152U
A30C C76A C87G U151A
A30U U56A A64G C76U G81A C93A U102A G136C
A30U U44G G133A
A30U G50C C96U U104C G136U
A30C U56G G83U C87A A106U A147U
A30G G50U U55A A97U C131G U144G
A30U G86U
U31A C57U C93U A106G G117C C129A G140U U151A
A30U C54A U55G G86C C105A A119G G136U A142U
A30C U33C A39U A40G G83A U90C A121G
A30U G50C
A30U G48U G81A G86U
U31A C32A G59A C93G A113U A150C
A30C A41C C57A G62C G92A C131G
A30U U82A C85A U104A
A30U C36A U55A A60U G94C U102A C105G A106U
A29U U53A G92U G133U U134G
A30U U56G G58C C75A G84U C116A
A29U U61A G65U
A30U C38A C51A C75U C93A C95U
A30U A91U U104G
A29U U53A G83A C93G
U31A C51A G83C C105U A119C A137C
A30C U55A C87G C93A G140C
A30U A52U U78A
U31A C43U U44G G62A G71A U90G A91C
A30U U55G G80A C85U A91C C125A
U31A C36A A66U U77A C108A
U31A A41C A49C G59A C96A
A30C C57U G58C G84C C87U
A30C C93G C116G G124A C129U
A30U G42A U55G C69A G126U A142C
A30U C32G C35G A49C G58U G59A A73G C96A C105U G133A U144G
A30U C35U C87A A106G U145A
A30U C72G C93U A137C
A30U A49C U61G G84U U139C
U31A A89C C149G
A30U C43U U61A C75G U78G C96G U104G
A30U C93U C95U A150U
A30G C93G U104A
A30G C51A U55A U56A G74C C76U U102A G117A
U31A A52U G83A C123A U127A
A30C A41C G67C G83U G88U G141A
A30G U61A G88A
A30G A41U A47G G88C
A30C A39U U44A U53A C93A
A30G G48U G86U C149U
A30G U61G A64C C72U C79G G88C A142G
A30G C43A C93A C116A G133U A142C U146G A147G
A30G G46A A49C G58C G88A U104A U130G G141A
A30C A97U G128A C132G
A30G U53A G62U A64G

Polymerase ribozyme fitness (log ratio), -2.07:
U31A A39G G94U

Polymerase ribozyme fitness (log ratio), 0.863:
U31A A106G

Polymerase ribozyme fitness (log ratio), -4.12:
A30C C93U A106U C131A A142C

Polymerase ribozyme fitness (log ratio), -4.09:
U31A C54U G83U G94U G124A A142C

Polymerase ribozyme fitness (log ratio), -3.43:
A30U G94C A121G

Polymerase ribozyme fitness (log ratio), -3.89:
U31A C69G A89U C96G U104A

Polymerase ribozyme fitness (log ratio), -1.16:
U31A C38U C95U C96A
